“And” between values parts separate entries of the source, which are not always exact repeats. Identical values can stand only once. Hit rate of the full screen: of about 48,000 compounds, about 1,200 (2.5%) were called active. Inconclusive results (about 2%) are left out.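 Rule for the calls: active = activation of at least 60% and not above a set upper limit (about 1 call in 100 departs from these limits); inconclusive = activation of 40% to 60%, or above that upper limit; inactive = activation under 40%.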 The list shows a part of the results.

The target of the test is Probable G-protein coupled receptor 32 (Homo sapiens) (UniProt O75388). Briefly: qHTS for Agonists of Human Resolvin D1 Receptor DRV1. Note: 0% is about no effect. The note with it: CHO-K1 GPR32 beta-arrestin PathHunter luminescence, 90 min; at 76.9 µM; stronger effect = higher value; zero percent set by DMSO-only wells. The gist of the method: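 Luminescent readout of beta-Gal complementation quantifies ligand-induced beta-arrestin association with GPR32 in CHO-K1 cells; 90 min compound incubation at 37 °C, detection 1 h at room temperature.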
Sequence of UniProt O75388 (O75388 whole entry, looked up): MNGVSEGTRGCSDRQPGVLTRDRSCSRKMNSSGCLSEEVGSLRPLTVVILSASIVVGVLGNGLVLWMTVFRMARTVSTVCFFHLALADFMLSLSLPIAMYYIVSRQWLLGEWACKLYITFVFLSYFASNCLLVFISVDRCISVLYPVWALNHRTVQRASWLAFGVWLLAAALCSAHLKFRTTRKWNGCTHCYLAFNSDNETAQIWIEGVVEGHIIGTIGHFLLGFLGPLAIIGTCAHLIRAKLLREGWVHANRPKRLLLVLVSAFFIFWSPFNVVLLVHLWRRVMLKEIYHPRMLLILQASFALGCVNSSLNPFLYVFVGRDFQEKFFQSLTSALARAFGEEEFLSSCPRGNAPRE
In general terms: In qHTS, concentration-response curves come from the screen itself.
Consider `CC(=O)Nc1ccc(NC(=O)CSc2nccn2C)cc1`, for which the activation is inactive: -2.02%.

As to `COCCNc1sc(S(=O)(=O)c2ccc(C)cc2)nc1S(=O)(=O)c1ccc(C)cc1`, the activation is inactive: -22%.

`COC(=O)c1ccccc1NC(=O)c1c(NC(=O)c2ccco2)sc2c1CCC(C(C)(C)C)C2` (stereo unspecified): the activation was inactive: 3.08%.

As to `CCc1ccccc1NC(=O)c1cc(S(=O)(=O)N2CCCC2)cn1C`, the activation was inactive: -8.51%.

With `Cc1cccc(N2CCN(C(=O)CCc3c(C)nc4ncnn4c3C)CC2)c1C`, the activation was inactive: -4.87%.

With `COCCN1C(=O)c2[nH]nc(-c3cc(C)ccc3O)c2C1c1ccc(C(C)C)cc1` (stereo unspecified), the activation is inactive: 25.2%.

Take `COC(=O)c1cnc(N2CCN(c3ccccc3F)CC2)c2ccccc12`: the activation was inactive: 13.5%.

Regarding `Cc1ccc(NC(=O)C2CCN(c3nc4ccccc4[nH]3)CC2)c(C)c1`, the activation was inactive: -14.5%.

Take `Cc1ccc(Cn2c(=O)n(CCCC(=O)NCc3ccccc3Cl)c(=O)c3ccccc32)cc1`: the activation was inactive: -2.35%.

Consider `COc1ccc(OC)c(NC(=O)c2c(NCc3cccs3)sc3c2CCCC3)c1`, for which the activation was inactive: -2.23%.

For the compound `O=C(Cc1ccccc1)Nc1cccc(-c2cn3cccnc3n2)c1`, the activation is inactive: 16.7%.

Take `COc1ccccc1NC(=O)NCCN1CCN(c2cccc(Cl)c2)CC1`: the activation was inactive: 12.2%.

Regarding `CC(C)c1cccc(C(C)C)c1NC1=NS(=O)(=O)c2ccccc21`, the activation is inactive: -10.6%.

Take `CCOc1ccc(S(=O)(=O)Nc2ccc3c(c2)N(C(C)=O)CCC3)cc1`: the activation was inactive: -7.18%.

Take `COC(=O)C(C)Sc1ncnc2c1c(-c1ccccc1)cn2-c1ccc(F)cc1` (stereo unspecified): the activation is inactive: -0.458%.

Turning to `Cc1cccc(C)c1-n1ncc(C(=O)N2CCN(c3ccccc3)CC2)c1C1CCN(C(=O)OC(C)(C)C)CC1`, the activation is inactive: -13.5%.

With `O=C(Cn1c(-c2cccs2)cc2ccccc21)NCCc1ccc(Cl)cc1`, the activation was inactive: -13.9%.

On to `CN(CC(=O)Nc1cccc(C(F)(F)F)c1)S(=O)(=O)c1cccs1`, for which the activation was active: 67.5%.

With `Cc1ccc(CNS(=O)(=O)c2cc3c(cc2C)NC(=O)CO3)cc1`, the activation is inactive: -19.4%.

As to `COc1ccc(OC)c(NC(=O)CN2C(=O)COc3ccc(S(=O)(=O)NC4CCCC4)cc32)c1`, the activation was inactive: -19.8%.

Regarding `Cc1cncn1CCc1nc2c3ccccc3nc(SCC(=O)Nc3cccc(Cl)c3)n2n1`, the activation is inactive: 19.9%.

With `O=C(c1ccc(CSc2nc3ccncc3n2Cc2cccc(F)c2)cc1)N1CCCCCC1`, the activation was inactive: -2.8%.

For `CCOc1ccccc1NC(=O)c1cc2c(=O)oc3ccccc3c2s1`, the activation is inactive: 2.46%.

On to `CCC(Cn1nnc2ccccc2c1=O)NC(=O)Nc1ccc(C)c(C)c1` (stereo unspecified), for which the activation was inactive: -17%.

On to `CC1CCCCN1c1nnc(NC(=O)Nc2ccccc2F)s1` (stereo unspecified), for which the activation is inactive: 5.37%.

For the compound `Cc1ccc(/C=C/c2nc3ccccc3[nH]2)cc1`, the activation was inactive: 30.8%.

Consider `CCc1ccc(NC(=O)CCS(=O)(=O)c2ccc3c(c2)n(C)c(=O)c(=O)n3C)cc1`, for which the activation was inactive: -5.26%.

Turning to `CC(C)COc1ccc(C(=O)N(Cc2ccc(N(C)C)cc2)Cc2ccco2)cc1`, the activation is inactive: -32.4%.

On to `CS(=O)(=O)CCC(C(=O)Nc1cccc(C(F)(F)F)c1)N1Cc2ccccc2C1=O` (stereo unspecified), for which the activation is inactive: -11.7%.

For the compound `O=C(c1ccco1)c1cn(CCOc2ccc(F)cc2)c2ccccc12`, the activation is inactive: -2.25%.

In the case of `CC1CCCN(C(=O)c2cc3c(Cl)nc4ccccc4c3s2)C1` (stereo unspecified), the activation is active: 108%.

On to `Cc1ccc(OCc2nc3ccccc3n2CCOc2ccc(Cl)cc2)cc1`, for which the activation is inactive: -53.8%.

`COCCCNC(=O)CSc1nc2cc(OC)c(OC)cc2c2nc(-c3ccccc3)nn12`: the activation was inactive: 4.27%.

For `Cc1ccc(Nc2nnc(-c3ccc(C)c(S(=O)(=O)NCc4nc5ccccc5[nH]4)c3)c3ccccc23)cc1`, the activation was inactive: -6.23%.

`CC(C)c1ccc(NC(=O)Cn2c(=O)n(CCc3ccccc3)c(=O)c3ccccc32)cc1`: the activation was inactive: 2.51%.

Regarding `CCc1cccc(CC)c1NC(=O)CN1C(=O)C(=O)c2ccccc21`, the activation is inactive: -73.5%.

With `Cc1ccc(-c2nc(SCC(=O)NCc3ccco3)c3c(=O)n(C)c(=O)n(C)c3n2)cc1`, the activation was inactive: -2.98%.

As to `Cc1ccc(-c2nnc(Nc3cccc(O)c3)c3ccccc23)cc1S(=O)(=O)N1CCN(C)CC1`, the activation was inactive: -1.28%.

For the compound `Cc1ccccc1OCC(O)Cn1c(=N)n(CCN2CCCCC2)c2ccccc21` (stereo unspecified), the activation is inactive: 19.7%.

For `Cc1ccc(C(=O)Nc2cccc(-c3nc4ccccc4o3)c2)c(Cl)c1`, the activation is inactive: -2.86%.

Regarding `Cc1c(Cn2ccnc2)c2ccccc2n1CCC(=O)O`, the activation is inactive: -7.38%.

Consider `CCCc1c(C)c2ccc(O)c(CN3CCN(c4ccc(F)cc4)CC3)c2oc1=O`, for which the activation is inactive: -1.49%.

In the case of `COC(=O)c1c(Oc2ccc(C(C)=O)cc2)nnc(-c2ccccc2)c1-c1ccccc1`, the activation is inactive: -7.11%.

`COc1ccccc1CNC(=O)CN1C(=O)CSc2ccc(S(=O)(=O)N3CCCCC3)cc21`: the activation was inactive: -5.61%.

`CCN(c1ccccc1)c1ncnc2c1cnn2-c1ccc(C)cc1C`: the activation was inactive: 40.8%.

Take `CCOC(=O)c1ccccc1NC(=O)c1cc2c(=O)oc3ccc(C)cc3c2s1`: the activation is inactive: 9.76%.

On to `CC1=C(C(=O)N2CCN(c3cccc(C(F)(F)F)c3)CC2)C2(CCCCC2)OC1=O`, for which the activation is inactive: -6.2%.

Turning to `Cc1ccc(NC(=O)Cn2cc3c(n2)CCCCC3)cc1`, the activation was inactive: -1.21%.

Consider `O=C(Nc1ccc(Cl)cc1Cl)c1cc(S(=O)(=O)N2CCc3ccccc32)ccc1F`, for which the activation was inactive: -16.7%.

Take `Cc1ccc(S(=O)(=O)Nc2cccc(-c3cn4cccc(C)c4n3)c2)cc1`: the activation is inactive: -10.3%.

Take `CCOC(=O)c1noc2nc(C)n(CC(=O)Nc3ccccc3F)c(=O)c12`: the activation is inactive: 9.88%.

Turning to `Cc1cccc(N2CCN(C(=O)c3c(C)oc4ncnc(N5CCCCC5)c34)CC2)c1C`, the activation was active: 85.1%.

On to `Cc1ccc(C)c(Nc2nc3c(S(=O)(=O)c4ccc(C(C)C)cc4)nnn3c3ccsc23)c1`, for which the activation is inactive: -12.1%.

With `CCc1ccc(C2CC(=O)Nc3cc4c(cc32)OCO4)cc1` (stereo unspecified), the activation was active: 72.3%.

Turning to `COc1ccc(S(=O)(=O)n2ccnc2)cc1C(C)(C)C`, the activation was inactive: -4.12%.

With `CCc1ccccc1N1C(=O)N(Cc2ccccc2C)c2ccccc2S1(=O)=O`, the activation was inactive: -22.4%.

Take `CC(C)CN(CCCNC(=O)CN1C(=O)CSc2ccc(S(=O)(=O)N3CCOCC3)cc21)CC(C)C`: the activation is inactive: -6.77%.

Consider `CN1CCN(C2=Nc3ccccc3Oc3ccc(Cl)cc32)CC1`, for which the activation is inactive: 3.16% and inactive: -29.4%.

As for `CCOc1ccc(CNC(=O)CSc2nnc(C)c3c(C)n(-c4ccccc4)nc23)cc1`, the activation was inactive: -10.1%.

Take `Cc1ccccc1CCNC(=O)c1ccc2c(c1)c(C)c(C)n2Cc1ccccc1`: the activation was inactive: -25.8%.

For the compound `COc1ccc(OC)c2sc(N3CCN(C(=O)C4CC4)CC3)nc12`, the activation was inactive: -11%.

Consider `COc1ccc(OC)c(-n2cnc3cc(C(=O)NC4CCCCCC4)ccc32)c1`, for which the activation was inactive: -14.4%.

Regarding `CCOc1ccc(NC(=O)CC2C(=O)OCCN2CC)cc1` (stereo unspecified), the activation is inactive: 17.5%.

As to `COc1ccccc1NC(=O)c1cnc(SCC(=O)N2CCCc3ccccc32)n(C)c1=O`, the activation was inactive: -16.5%.

Turning to `Cc1ccc(NC(=O)Cn2c(=O)n(CCC(=O)N3CCc4ccccc4C3)c(=O)c3ccccc32)cc1`, the activation is inactive: 3.52%.

For `Cc1cc(C)cc(S(=O)(=O)Nc2cccc(-c3ccc(N4CCOCC4)nn3)c2)c1`, the activation was inactive: -9.86%.

For `CC(=O)c1ccc(NC(=O)Cn2c(=O)c3cccn3c3ccccc32)cc1`, the activation was inactive: 8.78%.

Consider `COc1ccc(Cn2c(C(=O)O)c(CNCCc3cccs3)c3ccc(C)cc32)cc1`, for which the activation was inactive: 34%.

On to `COc1ccccc1CNC(=O)c1ccc2c(c1)N(Cc1cccc(Cl)c1)C(=O)c1ccccc1S2(=O)=O`, for which the activation was inactive: -17.1%.

In the case of `Cc1ccc(Cn2c(C(=O)O)c(CNC3CCCCCC3)c3ccc(C)cc32)cc1`, the activation was inactive: -2.58%.

As to `CC(C)(C)C(=O)NCCc1nc2ccccc2n1CCCCOc1ccc(Cl)cc1`, the activation is inactive: 37.1%.

Take `Cc1oc2ncn(CC(C)C)c(=O)c2c1C(=O)Nc1cc(F)ccc1F`: the activation is inactive: -26.1%.

As to `O=C(NN1CCCC1)NS(=O)(=O)c1ccc(Cl)cc1`, the activation was inactive: -64.3%.

As for `COc1ccc(-n2nc3c(N4CCCC(C(=O)NCc5cccc(F)c5)C4)nnc(C)c3c2C)cc1` (stereo unspecified), the activation is inactive: -5.25%.

Take `COc1cccc(CNC(=O)c2cc3c(s2)-c2c(C)cccc2OC3)c1`: the activation is inactive: -14.5%.

Regarding `COc1ccc(-c2nc(CNS(=O)(=O)c3ccccc3)cs2)cc1`, the activation is inactive: -4.63%.

With `Cc1ccc(C)c(OCCn2cc(C(=O)c3ccco3)c3ccccc32)c1`, the activation is inactive: -0.0705%.

Turning to `CCn1c(CNC(=O)C23CC4CC(CC(C4)C2)C3)nnc1SCC(=O)Nc1ccccc1`, the activation was inactive: 7.66%.

As for `COc1ccccc1C(=O)NC1(C(F)(F)F)C(=O)Nc2c1c(=O)[nH]c(=O)n2-c1ccccc1` (stereo unspecified), the activation is inactive: -4.13%.

On to `Cc1oc2ncn(C)c(=O)c2c1C(=O)N1CCN(c2ccccc2)CC1`, for which the activation was inactive: -3.31%.

As for `O=C(Oc1ccc(F)cc1)c1nc(SCc2ccccc2F)ncc1Cl`, the activation is inactive: -13.8%.

`COc1c2occc2cc2ccc(=O)oc12`: the activation was inactive: -1.07%.

With `Cn1c(=O)c2c([nH]c(=O)n2Cc2ccc(Cl)cc2Cl)n(C)c1=O`, the activation was inactive: -10.5%.

On to `Cc1ccc2c(c1)-c1nc(-c3ccc4c(c3)NC(=O)CO4)cc(-c3ccc(Cl)cc3)c1CO2`, for which the activation was inactive: -12.6%.

Turning to `CC1CCCN(CCCNC(=O)c2cn(C)c3ccc(S(=O)(=O)N(C)C4CCCCC4)cc3c2=O)C1` (stereo unspecified), the activation was inactive: -4.7%.

As to `Cc1ccc2nc(N3CCN(C(=O)C4CC4)CC3)sc2c1`, the activation was inactive: -5.02%.

The record behind these values is PubChem BioAssay AID1346428 (National Center for Advancing Translational Sciences (NCATS), 2018).
